Reference: paper PMC9512828
No constants are given. Whether binding was seen depends on the method and setting. Binding seen in cells or lysates may run through a third protein. Some binding calls cover weakened binding; strength is not graded here.

Chains of the proteins cited; added tags and fusions are not shown. Lines headed by an entry give the natural chain unless they say otherwise; changes in a name come on top. A line that says so, or that is headed by a name, gives the form on record, which may keep a tag or linker. Residues count along the entry.
PTH1R-WT coupled to a C-terminal HaloTag (parathyroid hormone 1 receptor) (Q03431, residues 27-593): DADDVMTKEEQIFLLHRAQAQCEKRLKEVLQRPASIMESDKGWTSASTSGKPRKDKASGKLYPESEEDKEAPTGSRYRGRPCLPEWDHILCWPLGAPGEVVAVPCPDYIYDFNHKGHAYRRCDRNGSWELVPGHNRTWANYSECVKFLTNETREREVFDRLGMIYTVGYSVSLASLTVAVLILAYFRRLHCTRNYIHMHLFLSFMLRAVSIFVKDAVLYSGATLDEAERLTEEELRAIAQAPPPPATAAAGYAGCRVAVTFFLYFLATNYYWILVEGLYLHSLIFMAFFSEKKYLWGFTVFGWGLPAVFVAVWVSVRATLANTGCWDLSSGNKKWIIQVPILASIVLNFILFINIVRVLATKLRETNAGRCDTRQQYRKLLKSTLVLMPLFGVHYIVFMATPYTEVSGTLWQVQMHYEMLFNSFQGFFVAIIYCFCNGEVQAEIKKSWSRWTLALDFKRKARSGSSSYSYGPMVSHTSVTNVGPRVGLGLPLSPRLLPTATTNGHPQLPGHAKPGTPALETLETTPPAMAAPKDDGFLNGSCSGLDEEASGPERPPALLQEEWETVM
PTH1R-PD1 coupled to a C-terminal HaloTag (proximal phosphorylation cluster substituted by alanine) (Q03431, form named): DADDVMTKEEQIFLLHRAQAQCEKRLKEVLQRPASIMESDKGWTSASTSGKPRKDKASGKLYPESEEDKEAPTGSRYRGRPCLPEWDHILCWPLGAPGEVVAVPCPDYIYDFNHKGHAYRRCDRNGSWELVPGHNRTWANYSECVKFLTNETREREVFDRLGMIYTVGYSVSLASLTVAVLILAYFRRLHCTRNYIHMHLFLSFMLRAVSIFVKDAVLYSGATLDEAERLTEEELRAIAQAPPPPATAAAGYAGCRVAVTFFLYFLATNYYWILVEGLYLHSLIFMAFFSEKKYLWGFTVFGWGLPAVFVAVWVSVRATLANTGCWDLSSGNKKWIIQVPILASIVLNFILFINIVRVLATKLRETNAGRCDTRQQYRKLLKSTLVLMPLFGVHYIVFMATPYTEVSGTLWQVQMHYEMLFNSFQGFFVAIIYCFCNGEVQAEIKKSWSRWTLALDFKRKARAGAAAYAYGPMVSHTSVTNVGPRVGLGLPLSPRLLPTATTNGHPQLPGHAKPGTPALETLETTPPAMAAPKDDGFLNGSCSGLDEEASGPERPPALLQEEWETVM
PTH1R-PD2 coupled to a C-terminal HaloTag (distal phosphorylation cluster substituted by alanine) (Q03431, form named): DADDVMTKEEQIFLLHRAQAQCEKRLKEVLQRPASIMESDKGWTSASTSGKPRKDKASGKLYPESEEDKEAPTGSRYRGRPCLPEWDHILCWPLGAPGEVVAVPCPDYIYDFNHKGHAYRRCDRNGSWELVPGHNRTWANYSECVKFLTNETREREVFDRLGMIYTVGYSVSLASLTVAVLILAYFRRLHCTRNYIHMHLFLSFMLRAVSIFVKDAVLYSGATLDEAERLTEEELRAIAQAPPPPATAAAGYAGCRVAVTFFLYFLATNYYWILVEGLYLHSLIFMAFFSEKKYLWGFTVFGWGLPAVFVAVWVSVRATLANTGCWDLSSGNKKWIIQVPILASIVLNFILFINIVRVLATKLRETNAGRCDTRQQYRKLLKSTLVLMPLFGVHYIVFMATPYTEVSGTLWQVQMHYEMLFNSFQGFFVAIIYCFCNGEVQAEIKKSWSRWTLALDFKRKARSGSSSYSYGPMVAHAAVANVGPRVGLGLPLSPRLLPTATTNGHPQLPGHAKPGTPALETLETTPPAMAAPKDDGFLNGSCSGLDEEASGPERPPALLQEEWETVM
UniProt P32120: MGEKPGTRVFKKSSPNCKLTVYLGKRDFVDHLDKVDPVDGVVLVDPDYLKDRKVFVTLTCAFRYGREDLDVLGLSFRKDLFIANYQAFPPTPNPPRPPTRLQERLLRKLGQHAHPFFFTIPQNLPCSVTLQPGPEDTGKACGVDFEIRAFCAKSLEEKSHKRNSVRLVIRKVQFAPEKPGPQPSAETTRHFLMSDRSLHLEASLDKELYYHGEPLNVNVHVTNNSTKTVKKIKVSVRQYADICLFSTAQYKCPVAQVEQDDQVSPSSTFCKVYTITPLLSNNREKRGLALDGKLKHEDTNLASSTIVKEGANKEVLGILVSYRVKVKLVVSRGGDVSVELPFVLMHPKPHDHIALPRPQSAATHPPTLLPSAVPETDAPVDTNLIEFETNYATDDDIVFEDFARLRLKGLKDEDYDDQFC
β-arrestin2-dFLR (finger-loop region Y64 to K78 deleted) C-terminally fused to Nanoluciferase (P32120, form named): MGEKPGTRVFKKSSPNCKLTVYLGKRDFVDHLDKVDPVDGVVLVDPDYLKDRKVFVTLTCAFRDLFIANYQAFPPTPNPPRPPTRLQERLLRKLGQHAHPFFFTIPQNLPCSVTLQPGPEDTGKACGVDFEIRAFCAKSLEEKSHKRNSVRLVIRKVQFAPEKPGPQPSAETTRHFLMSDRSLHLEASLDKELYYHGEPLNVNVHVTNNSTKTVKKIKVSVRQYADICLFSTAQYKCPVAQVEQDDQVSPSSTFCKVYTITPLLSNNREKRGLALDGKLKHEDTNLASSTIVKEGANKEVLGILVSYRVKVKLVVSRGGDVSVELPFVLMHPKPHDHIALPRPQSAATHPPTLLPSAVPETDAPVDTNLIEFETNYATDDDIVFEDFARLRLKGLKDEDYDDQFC

Experiments:
[1] = biological target: PTH1R-PD1 coupled to a C-terminal HaloTag (proximal phosphorylation cluster substituted by alanine) (UniProt Q03431); assay: FRET or BRET; intermolecular NanoBRET recruitment in living HEK293 (HEK-WT) cells with endogenous GRKs (also ΔQ-GRK cells with GRK2, 3, 5 or 6 overexpressed); PTH1R-HaloTag labelled with Halo-ligand(618) as acceptor, β-arrestin-NanoLuc as donor; stimulated with rising concentrations of PTH(1-34); measuring buffer 140 mM NaCl, 10 mM HEPES, 5.4 mM KCl, 2 mM CaCl2, 1 mM MgCl2, pH 7.3
[2] = biological target: PTH1R-PD2 coupled to a C-terminal HaloTag (distal phosphorylation cluster substituted by alanine) (UniProt Q03431); assay: as above
[3] = biological target: PTH1R-PD1 coupled to a C-terminal HaloTag (proximal phosphorylation cluster substituted by alanine) (UniProt Q03431); assay: condition: only in ΔQ-GRK cells (GRK2, 3, 5 and 6 knocked out, no GRK overexpressed); FRET or BRET; intermolecular NanoBRET recruitment in living ΔQ-GRK cells (GRK2, 3, 5 and 6 quadruple knockout, no GRK overexpressed); PTH1R-HaloTag labelled with Halo-ligand(618) as acceptor, β-arrestin-NanoLuc as donor; stimulated with rising concentrations of PTH(1-34); measuring buffer pH 7.3
[4] = biological target: PTH1R-PD2 coupled to a C-terminal HaloTag (distal phosphorylation cluster substituted by alanine) (UniProt Q03431); assay: as above
[5] = biological target: PTH1R-WT coupled to a C-terminal HaloTag (parathyroid hormone 1 receptor) (UniProt Q03431); assay: as above
[6] = biological target: PTH1R-WT coupled to a C-terminal HaloTag (parathyroid hormone 1 receptor) (UniProt Q03431); assay: FRET or BRET; intermolecular NanoBRET recruitment in living HEK293 (HEK-WT) cells with endogenous GRKs (also ΔQ-GRK cells with GRK2, 3, 5 or 6 overexpressed); PTH1R-HaloTag labelled with Halo-ligand(618) as acceptor, β-arrestin-NanoLuc as donor; stimulated with rising concentrations of PTH(1-34); measuring buffer 140 mM NaCl, 10 mM HEPES, 5.4 mM KCl, 2 mM CaCl2, 1 mM MgCl2, pH 7.3
[7] = biological target: PTH1R-PD1 coupled to a C-terminal HaloTag (proximal phosphorylation cluster substituted by alanine) (UniProt Q03431); assay: FRET or BRET; intermolecular NanoBRET recruitment in living ΔQ-GRK cells (GRK2, 3, 5 and 6 quadruple knockout, no GRK overexpressed); PTH1R-HaloTag labelled with Halo-ligand(618) as acceptor, β-arrestin-NanoLuc as donor; stimulated with rising concentrations of PTH(1-34); measuring buffer pH 7.3
[8] = biological target: PTH1R-PD2 coupled to a C-terminal HaloTag (distal phosphorylation cluster substituted by alanine) (UniProt Q03431); assay: as above
[9] = biological target: PTH1R-WT coupled to a C-terminal HaloTag (parathyroid hormone 1 receptor) (UniProt Q03431); assay: as above

Substance	binding [1]	binding [2]	binding [3]	binding [4]	binding [5]	binding [6]	binding [7]	binding [8]	binding [9]
β-arrestin2-dFLR (finger-loop region Y64 to K78 deleted) C-terminally fused to Nanoluciferase (from UniProt P32120 1-420)	binds	binds weakly	no binding	no binding	no binding				
β-arrestin2 WT C-terminally fused to Nanoluciferase (from UniProt P32120 1-420)	binds	binds				binds	binds	binds	binds
